Where a name gives a salt, the structure may show the parent alone. This is one part of the list. Repeats are few or missing, and single values can be far off.
Key:
Test in all cases: area under viability curve (10 nM-1 µM), viability relative to solvent or trametinib-only control (AUC (arbitrary, % viability x concentration range)); higher = less growth inhibition (more viable cells)
KCNR = settings: 72 h compound exposure (96 h after seeding) h
Method: (§1)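 Four neuroblastoma cell lines (KCNR, SKNBE, SJNB8, SKNAS) were seeded in 384-well plates. At 24 h, 1 µM trametinib or DMSO was added, followed by library compounds at 10 nM, 100 nM and 1 µM. Viability was read by MTT at 96 h and normalised to solvent-treated cells (DMSO arm) or to trametinib-only cells (trametinib arm). The area under the 3-point viability curve was computed in GraphPad Prism; units are as given (approx. 100000 = no effect).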

SJNB8 = settings: 72 h compound exposure (96 h after seeding) h; trametinib co-treatment 0 µM
Method: as §1

SKNAS = settings: 72 h compound exposure (96 h after seeding) h
Method: as §1

SKNBE = settings: 72 h compound exposure (96 h after seeding) h
Method: as §1
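Also: KCNR is a neuroblastoma cell line carrying an ALK mutation, in this DMSO arm without trametinib, viability was normalised to solvent-treated cells.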

| SMILES | area under viability curve (KCNR; trametinib co-treatment 0 µM) | area under viability curve (KCNR; trametinib co-treatment 1 µM) | area under viability curve (SJNB8) | area under viability curve (SKNAS; trametinib co-treatment 0 µM) | area under viability curve (SKNAS; trametinib co-treatment 1 µM) | area under viability curve (SKNBE; trametinib co-treatment 0 µM) | area under viability curve (SKNBE; trametinib co-treatment 1 µM) |
| --- | --- | --- | --- | --- | --- | --- | --- |
| Cc1cn(-c2cc(NC(=O)c3ccc(C)c(Nc4nccc(-c5cccnc5)n4)c3)cc(C(F)(F)F)c2)cn1 [Nilotinib HCl] | 107000 | 97700 | 90400 | 104000 | 96100 | 104000 | 90400 |
| COCCNCc1ccc(-c2cc3nccc(Oc4ccc(NC(=S)NC(=O)Cc5ccc(F)cc5)cc4F)c3s2)nc1 [Glesatinib] | 101000 | 102000 | 92800 | 113000 | 113000 | 116000 | 104000 |
| COc1nc(N)nc2c1ncn2[C@@H]1O[C@H](CO)[C@@H](O)[C@@H]1O [Nelarabine] | 108000 | 103000 | 88500 | 119000 | 102000 | 107000 | 112000 |
| CC[C@]1(O)C[C@@H]2CN(CCc3c([nH]c4ccccc34)[C@@](C(=O)OC)(c3cc4c(cc3OC)N(C)[C@H]3[C@@](O)(C(N)=O)[C@H](O)[C@]5(CC)C=CCN6CC[C@]43[C@@H]65)C2)C1 [Vindesine sulfate] | 12800 | 12600 | 44300 | 21600 | 18800 | 38000 | 4410 |
| COc1ccc2c(Oc3ccc(NC(=O)c4c(C)n(CC(C)(C)O)n(-c5ccccc5)c4=O)nc3)ccnc2c1 | 101000 | 102000 | 68300 | 90600 | 92900 | 81100 | 97200 |
| COc1cc2c(cc1OC)CN(CCc1ccc(NC(=O)c3cccc4c(=O)c5cccc(OC)c5[nH]c34)cc1)CC2 [Elacridar] | 106000 | 106000 | 111000 | 112000 | 102000 | 124000 | 133000 |
| Oc1ccc(/C=C/c2cc(O)cc(O)c2)cc1 [Resveratrol] | 104000 | 99100 | 86200 | 129000 | 96400 | 117000 | 109000 |
| Nc1ccn([C@@H]2O[C@H](CO)[C@@H](O)C2(F)F)c(=O)n1 [Gemcitabine hydrochloride] | 18500 | 11600 | 43900 | 44800 | 43400 | 26000 | 11000 |
| CC(C)(C)OC(=O)Nc1ccc(-c2cc(C(=O)NCCCCCCC(=O)NO)no2)cc1 | 102000 | 101000 | 70000 | 78500 | 100000 | 88800 | 97700 |
| CC(NC(=O)c1ccccc1/N=C/c1c(O)ccc2ccccc12)c1ccccc1 (configuration not stated) [Sirtinol] | 96200 | 96200 | 74000 | 85300 | 94900 | 83700 | 80100 |
| CCc1cc(Nc2nccc(-c3c(-c4ccc(OC)c(C(=O)Nc5c(F)cccc5F)c4)nc4ccccn34)n2)c(OC)cc1N1CCC(N2CCN(S(C)(=O)=O)CC2)CC1 | 60100 | 69000 | 108000 | 106000 | 75700 | 52300 | 23400 |
| COc1cc2c(Oc3ccc(NC(=O)C4(C(=O)Nc5ccc(F)cc5)CC4)cc3F)ccnc2cc1OCCCN1CCOCC1 [Foretinib] | – | – | 65300 | 76500 | 82800 | 62800 | 72900 |
| CC(=O)O[C@@]12CO[C@@H]1C[C@H](O)[C@@]1(C)C(=O)[C@H](O)C3=C(C)[C@@H](OC(=O)[C@H](O)[C@@H](NC(=O)OC(C)(C)C)c4ccccc4)C[C@@](O)([C@@H](OC(=O)c4ccccc4)[C@H]21)C3(C)C [Docetaxel] | – | – | 21400 | 24300 | 18400 | 24100 | 9440 |
| C=CC(=O)Nc1cc2c(Nc3ccc(F)c(Cl)c3)ncnc2cc1OCCCN1CCOCC1 [Canertinib 2HCl] | – | – | 66400 | 91800 | 94100 | 74700 | 99200 |
| CC(=O)Nc1cccc(-n2c(=O)n(C3CC3)c(=O)c3c(Nc4ccc(I)cc4F)n(C)c(=O)c(C)c32)c1 [Trametinib (DMSO solvate)] | – | – | 21600 | 45800 | 106000 | 68500 | 113000 |
| COc1ccc(-c2ccc3c(N4CCOC[C@@H]4C)nc(N4CCOC[C@@H]4C)nc3n2)cc1CO | – | – | 46100 | 39800 | 45000 | 42100 | 22600 |
| C[C@@H](O[C@H]1OCCN(Cc2n[nH]c(=O)[nH]2)[C@H]1c1ccc(F)cc1)c1cc(C(F)(F)F)cc(C(F)(F)F)c1 [Aprepitant] | – | – | 82500 | 90600 | 97300 | 107000 | 117000 |
| Cn1cnc2c(F)c(Nc3ccc(Br)cc3Cl)c(C(=O)NOCCO)cc21 [Selumetinib] | – | – | 44300 | 58400 | 105000 | 91700 | 101000 |
| Cc1nc(=O)c2cc(CN(C)c3ccc(C(=O)N[C@@H](CCC(=O)O)C(=O)O)s3)ccc2[nH]1 [Raltitrexed] | – | – | 48400 | 69300 | 84500 | 52200 | 28600 |
| Nc1nc(OCc2cc(Br)cs2)c2[nH]cnc2n1 [Lomeguatrib] | – | – | 86800 | 96000 | 96400 | 81400 | 87100 |
| O=C(O)c1ccnc(C(=O)O)c1 [2,4-Pyridinedicarboxylic acid] | – | – | 70200 | 104000 | 102000 | 83600 | 90600 |
| Cn1c(=O)n(-c2ccc(C(C)(C)C#N)cc2)c2c3cc(-c4cnc5ccccc5c4)ccc3ncc21 [Dactolisib] | – | – | 40700 | 50200 | 54700 | 30900 | 18300 |
| Nc1ccccc1NC(=O)CCCCCCC(=O)Nc1ccccc1 | – | – | 93800 | 120000 | 106000 | 107000 | 90900 |

Source: the supplement of paper PMC9990464
